Laboratory results taken from the supplement of paper PMC4967469.
A lower IC50 marks a more sensitive line; fits outside the tested doses are given as limits. The AUC spans the tested range (256-fold, ending at the top dose) of the same fit: 1 means no effect, lower means more sensitive. An inferred top dose comes from the curve model; the source does not state it.

Compound: Cc1ccc(-c2c(C(=O)CF)n(CCCO)c3ncnc(N)c23)cc1 [FMK]
Assay: Viability of human cancer cell lines after 72 h of drug (GDSC screen)
Conditions: top dose inferred
Protocol: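 Human cancer cell lines in 384-well plates, medium with 10% serum, drug for 72 h over a 256-fold dose range (nine 2-fold or five 4-fold steps up to the top dose). Adherent lines were fixed and stained with the nucleic acid dye Syto60, suspension lines read with resazurin; signal relative to control wells, capped at 0 and 100%. One two-parameter sigmoid per drug and line, fitted in a mixed model over all curves with the slope shared within a line.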

Cell Line	AUC	IC50
OSC-19 (head and neck, adherent, top dose 20 µM)	0.979	> 20 µM
OSC-20 (head and neck, adherent, top dose 20 µM)	0.969	> 20 µM
OV-90 (ovary, adherent, top dose 20 µM)	0.982	> 20 µM
OVCAR-3 (ovary, adherent, top dose 20 µM)	0.986	> 20 µM
OVCAR-4 (ovary, adherent, top dose 20 µM)	0.947	> 20 µM
OVCAR-5 (ovary, adherent, top dose 20 µM)	0.955	> 20 µM
OVCAR-8 (ovary, adherent, top dose 20 µM)	0.987	> 20 µM
OVISE (ovary, adherent, top dose 20 µM)	0.958	> 20 µM
OVKATE (ovary, adherent, top dose 20 µM)	0.968	> 20 µM
OVMIU (ovary, adherent, top dose 20 µM)	0.944	> 20 µM
OVTOKO (ovary, adherent, top dose 20 µM)	0.964	> 20 µM
P12-ICHIKAWA (T-cell lymphoblastic leukaemia, suspension, top dose 20 µM)	0.951	> 20 µM
P30-OHK (lymphoblastic leukaemia, suspension, top dose 20 µM)	0.973	> 20 µM
P31-FUJ (acute myeloid leukaemia, suspension, top dose 20 µM)	0.996	> 20 µM
P32-ISH (Burkitt lymphoma, suspension, top dose 20 µM)	0.994	> 20 µM
PA-1 (ovary, adherent, top dose 20 µM)	0.975	> 20 µM
PA-TU-8902 (pancreas, adherent, top dose 20 µM)	0.965	> 20 µM
PA-TU-8988T (pancreas, adherent, top dose 20 µM)	0.987	> 20 µM
PANC-02-03 (pancreas, adherent, top dose 20 µM)	0.963	> 20 µM
PANC-03-27 (pancreas, adherent, top dose 20 µM)	0.962	> 20 µM
PANC-04-03 (pancreas, adherent, top dose 10.24 µM)	0.967	> 10.2 µM

Cell Line	AUC	IC50
PANC-08-13 (pancreas, adherent, top dose 20 µM)	0.932	> 20 µM
PANC-10-05 (pancreas, adherent, top dose 20 µM)	0.936	> 20 µM
PC-3 (prostate, adherent, top dose 20 µM)	0.978	> 20 µM
PC-3 [JPC-3] (lung adenocarcinoma, adherent, top dose 20 µM)	0.981	> 20 µM
PC-14 (lung adenocarcinoma, adherent, top dose 20 µM)	0.97	> 20 µM
PCI-4B (head and neck, adherent, top dose 20 µM)	0.965	> 20 µM
PCI-6A (head and neck, adherent, top dose 20 µM)	0.968	> 20 µM
PCI-15A (head and neck, adherent, top dose 20 µM)	0.977	> 20 µM
PCI-30 (head and neck, adherent, top dose 20 µM)	0.983	> 20 µM
PCI-38 (head and neck, adherent, top dose 20 µM)	0.984	> 20 µM
PE/CA-PJ15 (head and neck, adherent, top dose 20 µM)	0.982	> 20 µM
PF-382 (T-cell lymphoblastic leukaemia, suspension, top dose 20 µM)	0.878	15.9 µM
PFSK-1 (medulloblastoma, adherent, top dose 20 µM)	0.985	> 20 µM
PL4 (pancreas, adherent, top dose 20 µM)	0.98	> 20 µM
PL18 (pancreas, adherent, top dose 20 µM)	0.988	> 20 µM
PL-21 (acute myeloid leukaemia, suspension, top dose 20 µM)	0.901	> 20 µM
PSN1 (pancreas, adherent, top dose 20 µM)	0.956	> 20 µM
QGP-1 (pancreas, adherent, top dose 20 µM)	0.962	> 20 µM
QIMR-WIL (acute myeloid leukaemia, suspension, top dose 20 µM)	0.955	> 20 µM
RC-K8 (B-cell lymphoma, suspension, top dose 20 µM)	0.992	> 20 µM
RCC10RGB (kidney, adherent, top dose 10.24 µM)	0.94	> 10.2 µM

Cell Line	AUC	IC50
RCM-1 (large intestine, adherent, top dose 20 µM)	0.974	> 20 µM
RD (rhabdomyosarcoma, adherent, top dose 20 µM)	0.985	> 20 µM
REH (B-cell leukaemia, suspension, top dose 20 µM)	0.943	> 20 µM
RERF-GC-1B (stomach, adherent, top dose 20 µM)	0.971	> 20 µM
RERF-LC-KJ (lung adenocarcinoma, adherent, top dose 20 µM)	0.986	> 20 µM
RERF-LC-Sq1 (lung squamous cell carcinoma, adherent, top dose 20 µM)	0.966	> 20 µM
RF-48 (stomach, adherent, top dose 20 µM)	0.977	> 20 µM
RH-1 (rhabdomyosarcoma, adherent, top dose 20 µM)	0.987	> 20 µM
RKN (ovary, adherent, top dose 20 µM)	0.978	> 20 µM
RKO (large intestine, adherent, top dose 20 µM)	0.961	> 20 µM
RL95-2 (endometrium, adherent, top dose 20 µM)	0.987	> 20 µM
RL (B-cell lymphoma, suspension, top dose 20 µM)	0.95	> 20 µM
RMG-I (ovary, adherent, top dose 20 µM)	0.975	> 20 µM
ROS-50 (B-cell leukaemia, suspension, top dose 20 µM)	0.972	> 20 µM
RPMI-2650 (head and neck, adherent, top dose 20 µM)	0.98	> 20 µM
RPMI-6666 (Hodgkin lymphoma, suspension, top dose 20 µM)	0.925	> 20 µM
RPMI-7951 (melanoma, adherent, top dose 20 µM)	0.951	> 20 µM
RPMI-8226 (myeloma, suspension, top dose 20 µM)	0.973	> 20 µM
RPMI-8402 (T-cell lymphoblastic leukaemia, suspension, top dose 20 µM)	0.827	9.65 µM
RPMI-8866 (chronic myeloid leukaemia, suspension, top dose 20 µM)	0.988	> 20 µM
RS4-11 (leukaemia, suspension, top dose 20 µM)	0.978	> 20 µM

Cell Line	AUC	IC50
RT4 (bladder, adherent, top dose 10.24 µM)	0.981	> 10.2 µM
RT-112 (bladder, adherent, top dose 20 µM)	0.983	> 20 µM
RVH-421 (melanoma, adherent, top dose 20 µM)	0.869	> 20 µM
RXF393 (kidney, adherent, top dose 10.24 µM)	0.965	> 10.2 µM
Raji (Burkitt lymphoma, suspension, top dose 20 µM)	0.989	> 20 µM
Ramos-2G6-4C10 (Burkitt lymphoma, suspension, top dose 20 µM)	0.968	> 20 µM
SAS (head and neck, adherent, top dose 20 µM)	0.943	> 20 µM
SBC-1 (small cell lung carcinoma, suspension, top dose 20 µM)	0.985	> 20 µM
SBC-3 (small cell lung carcinoma, adherent, top dose 20 µM)	0.931	> 20 µM
SBC-5 (small cell lung carcinoma, adherent, top dose 20 µM)	0.993	> 20 µM
SCC90 (head and neck, adherent, top dose 20 µM)	0.855	> 20 µM
SCC-3 (B-cell lymphoma, suspension, top dose 20 µM)	0.997	> 20 µM
SCC-4 (head and neck, adherent, top dose 20 µM)	0.982	> 20 µM
SCC-9 (head and neck, adherent, top dose 20 µM)	0.925	> 20 µM
SCC-15 (head and neck, adherent, top dose 20 µM)	0.977	> 20 µM
SCC-25 (head and neck, adherent, top dose 20 µM)	0.973	> 20 µM
SCH (stomach, adherent, top dose 20 µM)	0.988	> 20 µM
SF126 (glioma, adherent, top dose 20 µM)	0.985	> 20 µM
